Data on 54 compounds can be found in ChEMBL document CHEMBL4888484, “Replenishing the malaria drug discovery pipeline: Screening and hit evaluation of the MMV Hit Generation Library 1 (HGL1) against asexual blood stage Plasmodium falciparum ,using a nano luciferase reporter read-out” (2022).

Out of some 150,000 compounds screened, about 540 (0.36%) showed an effect of 50% or more. The list shows a part of the results.

For the experiment, the system named is Plasmodium falciparum. Kind of experiment: Primary screen in NF54 nanoGlo assay, in single point, at 2uM, 72h; a lower Z score goes with more inhibition. The note with it: timepoint 72 hour. Type of experiment: functional, Erythrocyte.
With `CCCOCCN1CCN(c2ncnc3oc(C)nc23)CC1`, the “% Inhibition” value is -5% and the Z score was 0.73.

Turning to `CNC(=O)[C@@H]1C[C@H](Oc2cccnc2)CN1C(=O)c1cccc(C#N)c1`, the “% Inhibition” value was -7% and the Z score amounted to 0.86.

With `CCS(=O)(=O)Cc1ccc(NC(=O)N[C@H]2CCCN(C)C2=O)cc1`, the “% Inhibition” value is recorded as -8% and the Z score worked out at 1.31.

In the case of `CCc1noc(-c2ccc(=O)n(CC(=O)Nc3ccc(C)c(C)c3)c2)n1`, the “% Inhibition” value stood at 2% and the Z score is on record as -0.34.

`Cc1ccc(C(=O)N2CCCC(C(=O)N3CCCC(c4nnc5ccccn45)C3)C2)cc1` (stereo not drawn): the “% Inhibition” value is listed as -7% and the Z score is recorded as 1.13.

For the compound `O=C(CCOc1ccccc1)N1CCOC[C@@H](O)C1`, the “% Inhibition” value is on record as -31% and the Z score is listed as 2.85.

For `COc1ccccc1CCN1Cc2cc(NC(=O)c3ccc(F)cc3)ccc2O[C@@H](C)C1=O`, the “% Inhibition” value turned out to be 10% and the Z score is -1.09.

In the case of `CCC(NC(=O)N1CCS(=O)(=O)CC1C)c1cccc(Cl)c1` (stereo not drawn), the “% Inhibition” value is on record as 0% and the Z score was -0.08.

Regarding `O=C(Nc1cn[nH]c1)c1cc(Br)c[nH]1`, the “% Inhibition” value is given as -26% and the Z score is given as 2.4.

On to `O=C(C[C@H](c1ccc(F)cc1)c1cn(Cc2ccccc2)c2ccccc12)N1CCCC1`, for which the “% Inhibition” value is -7% and the Z score is recorded as 0.68.

Regarding `COCC(=O)NC1CCN(c2nc(-c3cccnc3)cs2)CC1`, the “% Inhibition” value stood at 6% and the Z score is given as -1.16.

For the compound `CC[C@@H](CNC(=O)N(C)Cc1c(C)noc1C)N1CCCC1`, the “% Inhibition” value was -13% and the Z score worked out at 2.45.

Regarding `CCN(CC)c1ccc(C(=O)Nc2cc(C(=O)Nc3ccccc3F)ccc2N2CC3CC(C2)c2cccc(=O)n2C3)cc1` (stereo not drawn), the “% Inhibition” value was 11% and the Z score is listed as -1.26.

Regarding `C[C@]1(C(=O)O)CCN(C(=O)c2ccccc2OCC2CC2)C1`, the “% Inhibition” value is -2% and the Z score is 0.31.

For `COc1c(C)cc(C(=O)[C@H]2CCCN(CC(=O)Nc3cc(C)on3)C2)cc1C`, the “% Inhibition” value is 6% and the Z score is given as -0.88.

For `Cc1cccc(S(=O)(=O)Nc2nc(C(F)(F)F)c[nH]2)c1Br`, the “% Inhibition” value is given as 18% and the Z score is recorded as -2.53.

Regarding `Cc1noc2ncc(C(=O)N3CCc4sccc4[C@@H]3C)cc12`, the “% Inhibition” value was 3% and the Z score is -0.52.

Consider `N#CCC(=O)NCCOc1cncc(Cl)c1`, for which the “% Inhibition” value is given as -1% and the Z score came to 0.17.

`Cc1ccc(-c2nccn2CCCNc2cccnc2)o1`: the “% Inhibition” value was -14% and the Z score was 2.73.

Turning to `CC(C)CN(Cc1cccnc1)C1CN(C(=O)c2ccnn2C)C1`, the “% Inhibition” value is recorded as -4% and the Z score stood at 0.74.

On to `CCc1nnc(-c2cccn2CC(=O)NCc2ccccc2)o1`, for which the “% Inhibition” value is recorded as -8% and the Z score is given as 1.27.

In the case of `Cc1cc(C)c(CNC(=O)N(C)Cc2cscn2)c(=O)[nH]1`, the “% Inhibition” value was 2% and the Z score was -0.16.

For the compound `CCc1ccc(-c2cc3c(=O)n(Cc4noc(CN5CCCC5)n4)ccn3n2)cc1`, the “% Inhibition” value is listed as 1% and the Z score is -0.1.

Consider `CC1C(=O)N(CC(=O)N(C2CC2)C(C)C2CC2)C(=O)C1C` (stereo not drawn), for which the “% Inhibition” value is -2% and the Z score is 0.39.

For `COc1ccc(CNC(=O)C[C@@H]2C[C@H]3O[C@H](CNCc4ccccc4C(F)(F)F)[C@@H](O)[C@H]3O2)cc1`, the “% Inhibition” value came to 2% and the Z score is -0.22.

On to `CN(CC1CCCCC1O)C(=O)NCCc1cccc2cccnc12` (stereo not drawn), for which the “% Inhibition” value is -16% and the Z score is 3.1.

Turning to `Cc1cc(F)ccc1NC(=O)CCc1c(C)nn(-c2cc(N(C)C)ncn2)c1C`, the “% Inhibition” value is given as -5% and the Z score amounted to 1.01.

Consider `Cc1[nH]c2c3c(F)cccc3nn2c(=O)c1CCC(=O)NCc1cccn1C`, for which the “% Inhibition” value is listed as -16% and the Z score was determined as 2.29.

In the case of `Nc1nc2n(c1C(=O)c1ccc3c(c1)OCO3)CCC2`, the “% Inhibition” value stood at 14% and the Z score is listed as -1.4.

On to `O=C(NC[C@@H](O)CCc1ccccc1)c1coc(Br)c1`, for which the “% Inhibition” value is 4% and the Z score is -0.48.

`O=C(N[C@H]1CCN(Cc2nc3c(s2)CCCC3)C[C@@H]1O)c1cnccn1`: the “% Inhibition” value is given as -9% and the Z score is 1.77.

`O=C(c1ccccc1Oc1ccccc1)N1CCN(S(=O)(=O)c2ccccc2)CC1`: the “% Inhibition” value is recorded as -3% and the Z score was found to be 0.55.

Take `Cc1[nH]cnc1CNC(=O)c1ccc2ccccc2n1`: the “% Inhibition” value is recorded as -14% and the Z score was 1.95.

On to `CO[C@H]1C[C@@H](O)C12CCN(C(=O)c1cccc(CO)n1)CC2`, for which the “% Inhibition” value is -9% and the Z score turned out to be 1.57.

For `Cc1nc(CS(=O)(=O)CCCC(C)C)no1`, the “% Inhibition” value is listed as -6% and the Z score is on record as 1.09.

For `CCOC(=O)CN(C(=O)c1cncc(F)c1)C(C)(C)C`, the “% Inhibition” value is reported as -15% and the Z score is on record as 1.59.

Turning to `N#Cc1cccnc1NCCOC(=O)c1cccc(-n2cnnn2)c1`, the “% Inhibition” value is -11% and the Z score is on record as 1.46.

Turning to `O=C(Cn1nnc2ccccc21)N1CCc2ccccc21`, the “% Inhibition” value turned out to be 5% and the Z score is on record as -0.84.

On to `Fc1cccc(OCCN2CCCN3CCC[C@H]3C2)c1`, for which the “% Inhibition” value is recorded as -9% and the Z score is recorded as 1.15.

`COCCN(Cc1ccoc1)C(=O)NC1CCCC1`: the “% Inhibition” value is -2% and the Z score is 0.37.

Consider `CC(C)N(C(=O)[C@H](C)c1ccnn1C)C1CCCCC1`, for which the “% Inhibition” value was 1% and the Z score is listed as -0.16.

Regarding `Cc1cc(C)cc(CN2C(=O)C[C@H](Cc3cnn(C)c3)C2=O)c1`, the “% Inhibition” value was -9% and the Z score turned out to be 0.96.

In the case of `Cc1cc(C(=O)NC2CCN(C(=O)c3cc(F)cnc3O)CC2)c(C)o1`, the “% Inhibition” value is -10% and the Z score is on record as 1.33.

Consider `CCOC1CCN(C(=O)CCCN2CCCCC2=O)CC1`, for which the “% Inhibition” value is listed as 0% and the Z score is given as -0.03.

With `Cn1ccc(C(=O)N2CCc3[nH]c(C4CCCCC4)nc3C2)cc1=O`, the “% Inhibition” value was determined as 13% and the Z score is reported as -1.52.

`CCC(C)CN1C(=O)C(C)NC12CCN(C(=O)c1ccc(OC)cc1)CC2` (stereo not drawn): the “% Inhibition” value is recorded as -15% and the Z score came to 2.2.

Consider `COc1cccc(NC(=O)Nc2cc(C)ccc2N2CCCN(Cc3ccc(Cl)c(Cl)c3)C2=O)c1`, for which the “% Inhibition” value amounted to 0% and the Z score is given as 0.05.

On to `COc1cc(Cc2nc(-c3ccc4nnn(C(C)C)c4c3)no2)cc(OC)c1`, for which the “% Inhibition” value is -18% and the Z score was 1.9.

For the compound `O=C(N[C@H]1C[C@H]2C(=O)N3CCC[C@@H]3C(=O)N2C1)c1ccc(Br)cc1`, the “% Inhibition” value is recorded as -18% and the Z score amounted to 2.05.

Take `O=C(NCCCn1cncn1)c1cnc(Cc2c(Cl)cccc2Cl)nc1O`: the “% Inhibition” value is on record as -4% and the Z score was found to be 0.51.

For `Cc1cc(F)cc(C(=O)N(CC(F)(F)F)[C@@H](C)C(C)C)c1`, the “% Inhibition” value was -3% and the Z score is given as 0.24.

As for `Cc1noc(C(C)(C)NCc2ccc(OCCN3CCOCC3)c(Cl)c2)n1`, the “% Inhibition” value is reported as -10% and the Z score was determined as 1.84.

As to `NC(=O)C1CCCCC1NCc1ccsc1` (stereo not drawn), the “% Inhibition” value was 1% and the Z score is given as -0.19.

Turning to `Cc1ccccc1OCCNC(=O)N1CCC[C@H](N(C)C)CC1`, the “% Inhibition” value came out at 4% and the Z score is reported as -0.57.
